The densities may have been worked out from excess volumes.
Assay: xn = mol fraction of the nth substance listed
Details: 293.15 K, 100 kPa

| SMILES | mass density (x2 = 0) [kg/m3] | mass density (x1 = 0.04) [kg/m3] | mass density (x1 = 0.08) [kg/m3] | mass density (x1 = 0.24) [kg/m3] | mass density (x1 = 0.32) [kg/m3] | mass density (x1 = 0.43) [kg/m3] | mass density (x1 = 0.52) [kg/m3] | mass density (x1 = 0.63) [kg/m3] | mass density (x1 = 0.74) [kg/m3] | mass density (x1 = 0.87) [kg/m3] | mass density (x1 = 0.92) [kg/m3] | mass density (x1 = 0.96) [kg/m3] | mass density (x2 = 0.01) [kg/m3] |
| --- | --- | --- | --- | --- | --- | --- | --- | --- | --- | --- | --- | --- | --- |
| CC[n+]1ccn(C)c1.O=S(=O)([N-]S(=O)(=O)C(F)(F)F)C(F)(F)F + CCCCCCCCCCCC[n+]1ccn(C)c1.O=S(=O)([N-]S(=O)(=O)C(F)(F)F)C(F)(F)F | 1524 |  |  |  |  |  |  |  |  |  |  |  |  |
| CCCCCCCCCCCC[n+]1ccn(C)c1.O=S(=O)([N-]S(=O)(=O)C(F)(F)F)C(F)(F)F + CC[n+]1ccn(C)c1.O=S(=O)([N-]S(=O)(=O)C(F)(F)F)C(F)(F)F |  | 1506.7 | 1490.4 | 1426.8 | 1396.6 | 1371 | 1344.3 | 1311.4 | 1294.5 | 1270.9 | 1261.7 | 1255.1 | 1250.1 |

— a compilation of properties of binary mixtures (doi:10.1021/acs.jpcb.7b01654)
